According to publication PMC4336329 (PLoS ONE, 2015):
Out of some 310,000 compounds screened, about 2,200 (0.71%) showed an effect of 50% or more. The effect is printed as a negative number. The list shows a part of the results.

What follows are compounds tested against human ether-à-go-go-related gene (hERG) potassium channel (human, UniProt Q12809) (assay: primary screen, population patch clamp on CHO cells stably expressing hERG).
Chain of human ether-à-go-go-related gene (hERG) potassium channel (Q12809 whole entry, looked up): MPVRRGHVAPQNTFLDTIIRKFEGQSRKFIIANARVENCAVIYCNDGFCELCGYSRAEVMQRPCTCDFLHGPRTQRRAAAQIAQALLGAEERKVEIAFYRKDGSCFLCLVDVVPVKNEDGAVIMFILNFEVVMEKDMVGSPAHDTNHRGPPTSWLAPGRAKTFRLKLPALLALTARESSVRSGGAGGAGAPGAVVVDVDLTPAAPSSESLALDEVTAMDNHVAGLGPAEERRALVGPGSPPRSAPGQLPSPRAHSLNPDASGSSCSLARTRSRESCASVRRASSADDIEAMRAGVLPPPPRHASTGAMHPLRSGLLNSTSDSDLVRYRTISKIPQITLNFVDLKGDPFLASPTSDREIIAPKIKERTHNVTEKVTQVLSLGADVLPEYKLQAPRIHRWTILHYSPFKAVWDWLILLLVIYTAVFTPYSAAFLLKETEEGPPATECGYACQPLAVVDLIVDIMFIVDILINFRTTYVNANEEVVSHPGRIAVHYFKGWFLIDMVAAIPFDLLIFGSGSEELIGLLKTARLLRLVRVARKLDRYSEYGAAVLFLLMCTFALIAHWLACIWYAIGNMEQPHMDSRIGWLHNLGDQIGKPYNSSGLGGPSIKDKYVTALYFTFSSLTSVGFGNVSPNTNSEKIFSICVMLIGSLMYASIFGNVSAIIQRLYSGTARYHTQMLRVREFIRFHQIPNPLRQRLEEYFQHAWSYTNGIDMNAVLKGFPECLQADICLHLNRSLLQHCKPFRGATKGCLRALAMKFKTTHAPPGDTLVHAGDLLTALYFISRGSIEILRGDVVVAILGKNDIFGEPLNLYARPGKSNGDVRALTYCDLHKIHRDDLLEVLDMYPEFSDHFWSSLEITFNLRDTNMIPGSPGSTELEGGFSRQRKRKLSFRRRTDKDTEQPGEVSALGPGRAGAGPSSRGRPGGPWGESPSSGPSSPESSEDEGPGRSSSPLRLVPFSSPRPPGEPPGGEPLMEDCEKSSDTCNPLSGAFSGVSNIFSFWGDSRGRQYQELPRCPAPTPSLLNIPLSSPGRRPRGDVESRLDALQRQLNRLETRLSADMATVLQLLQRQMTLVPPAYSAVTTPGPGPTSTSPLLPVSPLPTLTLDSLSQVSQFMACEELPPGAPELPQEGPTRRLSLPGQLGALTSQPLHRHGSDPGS

Row | Structure (SMILES) | hERG current change (%, negative = inhibition) at 1uM [%]
1 | Cc1ccc2c(c1)N(C(C)C(=O)NCc1ccc3c(c1)OCO3)C(=O)CO2 (centres unmarked) | 3.21
2 | CC(=O)N1CCN(c2ccccc2NC(=O)c2ccc(C#N)cc2F)CC1 | -7.32
3 | O=C(c1ccc(OC2CCN(CCc3ccccc3)CC2)cc1)N1CCCC(O)C1 (centres unmarked) | 14.4
4 | O=[N+]([O-])C(C1CCS(=O)(=O)C1)C1CCS(=O)(=O)C1 (centres unmarked) | 6.1
5 | COc1ccc2nc(C)c(C(N)=O)cc2c1 | 8.62
6 | COc1cc2c(=O)n(Cc3ccco3)c(=O)n(CC(=O)c3ccc(Br)cc3)c2cc1OC | 7.71
7 | FC(F)(F)c1ccccc1CN1CCN(C2CCCCCC2)CC1.O=C(O)C(=O)O | 1.98
8 | CN(C)CCNS(=O)(=O)c1ccc(N2CCN(c3ccc(F)cc3)CC2)c([N+](=O)[O-])c1 | -1.96
9 | CC(Sc1ncc(C#N)c(N)n1)C(=O)Nc1ccccc1 (centres unmarked) | 13.1
10 | CCOC(=O)CN/C=C(\C#N)c1ccccc1 | 6.85
11 | CCOC(=O)c1ccc(NC(=S)Nc2ccccc2)cc1 | 8.18
12 | CN(C)C(=O)c1ccc(NC(=O)COC(=O)c2cc3c(s2)CCCCC3)cc1 | 2.63
13 | O=C(c1cc(-c2ccc(Cl)cc2)nc2ccccc12)N1CCC1 | -21.4
14 | CSc1ncccc1C(=O)NCC(=O)Nc1ccc(F)c(F)c1 | 12.1
15 | COc1ccccc1-c1csc(Cc2nnc3n2CCCCC3)n1 | 1.85
16 | Cc1cccc(OCC(=O)Nc2ccc(S(=O)(=O)N3CCN(C)CC3)cc2)c1 | 16.5
17 | COC(=O)c1cc2ccsc2n1Cc1cccc(F)c1 | -4.33
18 | CCOc1ccc2ccccc2c1C(=O)NCC(c1ccc(N(C)C)cc1)N(C)C (centres unmarked) | 0.466
19 | NC(=O)CC(NC(=O)c1ccccc1)c1ccc(NC2CCC2)c([N+](=O)[O-])c1 (centres unmarked) | -4.98
20 | Cc1cc2n(n1)C(c1ccccc1)CC(c1ccc(Br)cc1)=N2 (centres unmarked) | 5.15
21 | C/C(=N\OCC(=O)OCC(=O)Nc1cc(S(C)(=O)=O)ccc1Cl)c1ccc2c(c1)OCO2 | 3.95
22 | NC(=O)[C@H]1CC2(CC(c3cccc(NC(=O)COc4ccc(Cl)cc4)c3)=NO2)CN1C(=O)c1ccccc1C(=O)c1ccccc1 (some centres unmarked) | 4.27

Row | Structure (SMILES) | hERG current change (%, negative = inhibition) at 1uM [%]
23 | Cc1cc(C)nc(N/N=C/c2ccncc2)n1 | 14
24 | Cc1ccc(C2C(=O)N(C3CCCC3)CC(=O)N2CC2COc3ccccc3O2)cc1 (centres unmarked) | -8.04
25 | Cc1ccc(-c2noc(C3CCCN(C(=O)c4c(F)cccc4F)C3)n2)cc1 (centres unmarked) | -4.71
26 | Cc1cc(C(=O)OCC(=O)NCc2ccc(Cl)cc2Cl)c(C)o1 | 11.2
27 | CCOC(=O)c1ccc(N=C(C)c2c(O)[nH]c(=O)[nH]c2=O)cc1 | 16.9
28 | CCOC(=O)N1CCN(C(=O)c2ccc3c(c2)N(Cc2cc(C)ccc2C)C(=O)c2ccccc2S3=O)CC1 (centres unmarked) | 15.3
29 | O=C(Nc1sc2c(c1C(=O)NCc1ccco1)CCCC2)c1ccc2c(c1)OCO2 | 9.83
30 | CNc1nc(N2CCc3ccccc32)ncc1F | 4.07
31 | Cc1cccc(C)c1NC(=S)NNc1ncc(C(F)(F)F)cc1Cl | 12.3
32 | COC(=O)c1ccccc1NC(=O)C1CC(=O)N(c2ccc(C)cc2)C1 (centres unmarked) | -13.5
33 | Cc1ccccc1OCC(=O)NC(=S)Nc1ccc2c3c(cccc13)CC2 | 25.4
34 | CCOC(=O)N1CCC(NS(=O)(=O)c2ccccc2)CC1 | 4.15
35 | Cc1onc(-c2ccccc2Cl)c1C(=O)Nc1nc2c(s1)CCCC2 | 18.1
36 | O=C(NCc1ccco1)c1cc2cc(Br)ccc2o1 | 15.2
37 | COc1ccc(OC)c(NC(=O)c2nnn(Cc3ccccc3C)c2N)c1 | 17
38 | Cc1ccc(-n2nc3c(c2NC(=O)c2ccc(OC(C)C)cc2)CS(=O)C3)cc1 (centres unmarked) | 9.66
39 | CCOC(=O)C1=C(CS(=O)(=O)c2ccc(F)cc2)NC(=O)NC1c1cc(OC)c(O)c(OC)c1 (centres unmarked) | 19.4
40 | Cc1cccc(NC(=O)c2ccc3c(=O)n4c(nc3c2)CCCCC4)n1 | -28.4
41 | COc1ccc(N2CCN(C(=O)CN(C)S(=O)(=O)c3cc(C)ccc3OC)CC2)cc1 | 6.01
42 | O=C(NNC(=O)c1cccs1)c1ccc(Br)cc1 | 21.5
43 | O=C1C(Br)=Cc2cccc3cccc1c23 | 11.8
44 | O=C(OCc1cc2ccccc2[nH]c1=O)c1ccc([N+](=O)[O-])cc1 | 5.34

Row | Structure (SMILES) | hERG current change (%, negative = inhibition) at 1uM [%]
45 | CCOCCCNC(=O)C(c1ccc(Cl)cc1)N1CCN(c2ccccc2)CC1 (centres unmarked) | 14.7
46 | CCOc1ccccc1CN1CCN(CC2=Cc3cc(OC)ccc3OC2)CC1CCO (centres unmarked) | -46.3
47 | COc1ccccc1NC(=O)CN1CCC(c2nc3ccc(C)cc3[nH]2)CC1 | -15.8
48 | Clc1ccccc1Cn1nnc2c(N3CCOCC3)nc(C3CC3)nc21 | 11.9
49 | COc1ccccc1/C=C1/C(=O)N(c2ccc([N+](=O)[O-])cc2)N=C1C | 13.8
50 | COc1ccc(-c2nc(N)ncc2-c2csc(C)n2)c(O)c1OC | 10
51 | COc1ccc(N2CCN(C(=O)CCc3nc(-c4ccc(C)cc4)no3)CC2)cc1 | 4.74
52 | O=C(NC1CCCC1)C(c1ccncc1)N(C(=O)c1ccco1)c1ccc(F)c(Cl)c1 (centres unmarked) | 12.9
53 | Cc1cccc(OCC(=O)N2CCN(C(=O)CCC3CCCC3)CC2)c1 | -17.1
54 | CCN(CC)S(=O)(=O)c1cccc(C(=O)N/N=C2\CC(=O)CC(C)(C)C2)c1 | 18.7
55 | COCCNC(=O)Cn1nc(-c2ccccc2OC)ccc1=O | 19.7
56 | COc1ccc(OC)c(C2C(C(C)=O)=C(O)C(=O)N2CCc2ccc(OC)c(OC)c2)c1 (centres unmarked) | -8.33
57 | CC(Nc1nc(N2CCNCC2)nc2ccccc12)c1ccccc1 (centres unmarked) | -31.7
58 | COc1ccc(CCNC(=O)CSC(=O)c2ccccc2)cc1OC | 1.07
59 | Cc1ccc(C(C)C)c(OCC(O)CNC2CCCC2)c1.Cl (centres unmarked) | -11.5
60 | CN(Cc1cccc2cnccc12)C(=O)CCc1nnc(CCc2ccccc2)o1 | -5.46
61 | O=C(CCCn1c(=O)c2ccccc2n(CC(=O)NCc2ccco2)c1=O)NCc1ccco1 | 11.4
62 | COc1cccc(Nc2nnc(SCn3nnc4ccccc4c3=O)s2)c1 | 11
63 | Cc1ccc(CNS(=O)(=O)c2ccc3c(c2)n(C)c(=O)n3C)cc1 | 11.2
64 | CN(CC(=O)Nc1ccccc1C(=O)N1CCCC1)S(=O)(=O)c1ccc(Cl)cc1 | -9.34
65 | Cn1c(SCC(=O)N2CCCCC2)nc2c([nH]c3ccccc32)c1=O | 5.1
66 | Cc1ccc(-c2ccc(/C=C(\C#N)C(N)=S)n2C)cc1 | 16.6

Row | Structure (SMILES) | hERG current change (%, negative = inhibition) at 1uM [%]
67 | COc1cccc(/C=C/C(=O)OCCN2C(=O)c3ccccc3C2=O)c1 | 12
68 | Cc1cc(C)nc(/N=C(/NC(=O)Nc2cccc(Cl)c2)Nc2ccccc2)n1 | 22
69 | NS(=O)(=O)c1ccc(CCNC(=O)c2ccc(Cl)cc2[N+](=O)[O-])cc1 | 13.6
70 | O=C(c1ccco1)N1CCN(Cc2cc(=O)c(OCc3ccccc3F)co2)CC1 | 0.103
71 | COc1cccc(NC(=O)N2CCCC2C(=O)NC2CCCCC2)c1 (centres unmarked) | 10.8
72 | CC(C)CN1CCN(Cc2cnc(N3CCOCC3)s2)CC1CCO (centres unmarked) | 4.61
73 | Cc1ccc(-c2cc(C(=O)N3CCCCCC3)no2)cc1 | 10
74 | O=C(NCc1cccnc1)c1cc2nc(-c3cccs3)cc(C(F)(F)Cl)n2n1 | -19.8
75 | Clc1ccc(CO/N=C2\CCCc3nonc32)cc1 | 12.1
76 | Cc1ccc(OCC(=O)NNC(=O)C(C)Sc2ncnc3sc(C)c(C)c23)cc1 (centres unmarked) | 12.5
77 | Cc1cc(C(=O)Nc2nc3c(s2)CCCC3)no1 | 5.45
78 | COc1ccc(Cl)cc1S(=O)(=O)n1ccnc1C(C)C | 7.93
79 | CC(C)(C)c1csc(NC(=O)CSc2nc3ccccc3c(=O)[nH]2)n1 | 7.87
80 | CCOc1ccc(N2C(=O)C3Sc4[nH]c(=O)sc4C(c4ccc(OC)c(OC)c4)C3C2=O)cc1 (centres unmarked) | 6.03
81 | O=C(N/N=C/c1cccc(Cl)c1)C(c1ccncc1)N1CCOCC1 (centres unmarked) | 13.9
82 | COc1ccc(C2CC(=O)C(C(c3ccc(O)cc3)C3C(=O)CC(c4ccc(OC)cc4)CC3=O)C(=O)C2)cc1 (centres unmarked) | 6.73
83 | O=C(c1cccc(-c2ccc(O)cc2)c1)N1CCOCC1 | 9.2
84 | COc1ccc(Cl)cc1C(=O)Nc1ccc2nc3n(c(=O)c2c1)CCCC3 | -51.8
85 | Cc1ccc(S(=O)(=O)NCC(=O)N(CC(=O)NCC2CCCO2)Cc2ccco2)cc1 (centres unmarked) | 11.6
86 | Cc1ccc(N2C(=O)C(Cl)=C(N3CCCCCC3)C2=O)c(C)c1 | 19.2
